Source: PubChem BioAssay AID485344 (National Center for Advancing Translational Sciences (NCATS), 2010)
Screen size: about 340,000 compounds; about 6,900 (2%) were called active. Rule as the data show it: active = inhibition above about 30%; inactive = below that, where a call was filed. The entries are a selection whose mix differs from that of the whole data set. Where no call is shown, the source filed none.

Each compound was assayed against D(2) dopamine receptor (Homo sapiens) (UniProt P14416) (assay: HTS Assay for Allosteric Antagonists of the Human D2 Dopamine Receptor: Primary Screen for Antagonists). Settings: HEK293 TREx D2 cells, calcium flux, dopamine EC80; at 10 µM; stronger effect = higher value.
Procedure, shortened: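 Compounds are added to dye-loaded, induced HEK293 T-REx cells coupled to calcium release via D2; after a 3 min kinetic read an EC80 dopamine stimulus is given and fluorescence is recorded for 3 more min.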
Also: 0% is about no effect.

Sequence of UniProt P14416 (P14416 whole entry, looked up): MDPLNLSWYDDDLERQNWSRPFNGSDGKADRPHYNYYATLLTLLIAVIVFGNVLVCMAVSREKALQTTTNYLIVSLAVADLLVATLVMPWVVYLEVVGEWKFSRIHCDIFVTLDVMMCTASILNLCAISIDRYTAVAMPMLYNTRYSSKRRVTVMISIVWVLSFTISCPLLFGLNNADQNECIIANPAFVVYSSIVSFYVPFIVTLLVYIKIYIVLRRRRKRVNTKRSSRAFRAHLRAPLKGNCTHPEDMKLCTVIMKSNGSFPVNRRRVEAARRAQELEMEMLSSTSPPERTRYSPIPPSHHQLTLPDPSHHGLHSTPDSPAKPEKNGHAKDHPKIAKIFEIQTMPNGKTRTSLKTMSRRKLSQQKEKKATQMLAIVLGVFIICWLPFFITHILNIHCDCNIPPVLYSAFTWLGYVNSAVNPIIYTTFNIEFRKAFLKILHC

| SMILES | inhibition |
| --- | --- |
| CC1CCCCN1c1csc2ccc(F)cc2c1=O (configuration not stated) | -14.3% |
| Cc1c(/C=N\NC(=O)C2COc3ccc(C(C)(C)C)cc3O2)c2ccccc2n1C (configuration not stated) | active: 58% |
| COc1ccccc1N1CCN(C(=O)CCc2c(C)nn(-c3ccc(N4CCCC4)nn3)c2C)CC1 | -8.06% |
| Cc1cc(C)c2oc(-c3ccc(NC(=O)c4cc(Br)ccc4Cl)cc3)nc2c1 | 8.13% |
| Cc1ccc([N+](=O)[O-])cc1NC(=O)Nc1onc(C)c1C | active: 46.6% |
| Cc1ccc(NC(=O)CCc2nc3cccnc3n2-c2ccccc2)cc1 | -7.26% |
| Cc1coc2cc3oc(=O)c(CC(=O)NCCc4ccccc4F)c(C)c3cc12 | -5.79% |
| O=C(Cn1c(=O)n(Cc2ccc(C(=O)NCc3ccccc3Cl)cc2)c(=O)c2ccccc21)Nc1ccc(F)cc1 | 3.48% |
| Cc1c(-c2ccccc2)n(-c2ccc(Cl)cc2)c2nc3c(c(=O)n(C)c(=O)n3C)n12 | 7.57% |
| COc1ccc(NC(=O)CSc2nc3c(c(=O)n2-c2ccc(F)cc2)SCC3)c(OC)c1 | active: 37.7% |
| COc1ccccc1Cc1nc2ccccc2nc1SCC(=O)NCc1ccc(F)cc1 | 16.3% |
| O=C(CC(c1cccs1)N1Cc2ccccc2C1=O)Nc1ccc(Cl)cc1 (configuration not stated) | 1.67% |
| COc1ccccc1Nc1nc2c(S(=O)(=O)c3ccc(C(C)C)cc3)nnn2c2ccsc12 | -4.13% |
| CCOc1ccc2nc(Cl)c(C3CC(c4ccc(C)cc4)=NN3C(=O)CCCC(=O)O)cc2c1 (configuration not stated) | 14.2% |
| Cc1cccc(N2CCN(c3ncnc4onc(-c5ccc(F)cc5)c34)CC2C)c1 (configuration not stated) | -5.52% |
| Cc1ccc2c(=O)cc(C(=O)Nc3ccc(S(=O)(=O)N4CCCCC4)cc3)oc2c1C | -0.187% |
| CCOC(=O)c1[nH]c2ccccc2c1NC(=O)c1ccc(OC)c(OC)c1 | -2.36% |
| COc1cc(NC(=O)Cn2c(C)cc(C)c(C#N)c2=O)cc(OC)c1 | -1.85% |
| CCn1cc(C(=O)NCCc2ccc(Cl)cc2)c(=O)c2cc(S(=O)(=O)N3CCOCC3)ccc21 | 2.06% |
| Oc1cccc(-c2nc3ncccn3c2Nc2cccc(C(F)(F)F)c2)c1 | 15.6% |
| CCN(CC)S(=O)(=O)c1ccc2c(c1)N(CC(=O)Nc1ccc(F)cc1F)C(=O)C1CCCN21 (configuration not stated) | 1.2% |
| Cc1ccc(CNc2ccc(-c3nc(-c4cccnc4)no3)cc2[N+](=O)[O-])cc1 | -5.31% |
| CCOC(=O)c1[nH]c2ccccc2c1NC(=O)c1cc(Cl)ccc1Cl | 3.42% |
| COc1ccc(CNC(=O)CCCCCn2c(=O)[nH]c3ccccc3c2=O)cc1 | 16% |

| SMILES | inhibition |
| --- | --- |
| CCOP(=O)(c1ccccc1)c1nc(-c2ccc(F)cc2)oc1N1CCCCC1 (configuration not stated) | active: 31.7% |
| O=C(Cn1ncc2c3ccccc3n(Cc3ccccc3)c2c1=O)N1CCCCCC1 | 3.02% |
| NC(=O)NC(CC(=O)NNC(=O)c1ccccn1)c1ccc(Cl)cc1 (configuration not stated) | active: 35.3% |
| COc1ccc(-c2noc(-c3ccccc3OCC(=O)Nc3ccc(C(C)=O)cc3)n2)cc1 | 1.53% |
| CCc1cccc(NC(=O)Cn2c(C(=O)OC)cc3occc32)c1 | 0.425% |
| COc1ccccc1NC(=O)Cn1c(=O)n(-c2ccccc2Cl)c(=O)c2sc3ccccc3c21 | 5.82% |
| COCCCn1c(SCc2ccccc2F)nc2c(sc3ccccc32)c1=O | 7.06% |
| Cc1cc(OCC(=O)O/N=C(\N)Cc2cccs2)ccc1Br | active: 48.7% |
| COc1ccccc1CNC(=O)c1cc2sccc2n1Cc1ccc(F)cc1 | 12.8% |
| COc1ccc(Br)cc1CNC(=O)CCCn1c(=O)c2cccn2c2cccnc21 | 2.65% |
| COc1ccc(C2C=C(c3ccc(C)cc3)Nc3c(C(=O)Nc4ccccc4)cnn32)cc1 (configuration not stated) | -27.9% |
| CCCS(=O)(=O)c1c(S(=O)(=O)CCC)c2cc(C(C)(C)C)ccn2c1C(=O)c1ccc(OC)c(OC)c1 | 5.74% |
| O=C(Nc1ccc(F)c(Cl)c1)C1CCCN(c2ncnc3onc(-c4ccc(F)cc4)c23)C1 (configuration not stated) | -0.55% |
| COC(=O)c1cc2sccc2n1Cc1ccc(F)cc1 | 13.6% |
| CCCCC(=O)Nc1nnc(S(=O)(=O)N2CCCCCC2)s1 | 20.4% |
| CN1CCN(c2nc(-c3cccs3)nc3ccccc23)CC1 | active: 32.3% |
| CCN(c1cccc(C)c1)C(CNS(=O)(=O)c1ccccc1)c1ccccc1 (configuration not stated) | -1.63% |
| O=C(NC1CCN(Cc2ccc(Cl)cc2)CC1)c1cn(-c2ccccc2)nc1-c1cccnc1 | active: 74% |
| CCOc1ccc(NC(=O)c2cccc(N3CCCS3(=O)=O)c2)cc1 | 6.69% |
| Cc1ccc(C)c(N2CCN(C(=O)CN3C(=O)COc4ccc(S(=O)(=O)N5CCOCC5)cc43)CC2)c1 | 12.6% |
| Cc1ccc(C)c(CNC(=O)C2CCCCN2S(=O)(=O)c2ccc(F)cc2)c1 (configuration not stated) | 5.29% |
| Cc1cccc(-c2cc(NC(=O)c3ccccc3C)n(-c3ccccc3)n2)c1 | -22.8% |
| Nc1c2c(nc3c1CCC3)CCCC2 | active: 30.7% |
